The values below come from the supplement of paper PMC11876631.

Changes are numbered by the printed parent chain. Names and notes keep the numbering of the source. ± gives the standard deviation of the averaged measurements. Laboratory Escherichia coli strains with one amino-acid change in an essential protein, pooled on minimal glucose agar with carbenicillin or gentamicin at twice the control MIC (plus kanamycin and chloramphenicol for the plasmids), 48 h. Fold change of barcode share against drug-free plates; higher = less susceptible. Active = above 20 in both replicates (the paper's putatively resistant). '<' = one read or none on drug, '>' = one read or none on a drug-free plate. Shares are relative, so most strains fall below 1 when a few take over. Listed are strains with at least 15 reads on both drug-free plates, and hits; most hits rest on fewer reference reads. Replicate rank correlation about 0.5. Edits are read from barcodes.

The target of the series is Escherichia coli (laboratory strain). In words: barcode share on antibiotic plates over drug-free plates; higher = less susceptible. On the procedure:
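A pool of E. coli strains, each edited to carry one amino-acid change in an essential protein, was grown for 48 h on minimal glucose agar with or without antibiotic; strain barcodes were sequenced; mean of two replicates.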

[1] abbreviates: antibiotic: carbenicillin, 2× MIC (3.1 µg/mL).
The mark [2] stands for this setting: antibiotic: gentamicin, 2× MIC (MIC 0.45 µg/mL).

B1: aroD L158A (protein)
chain: MKTVTVKDLVIGTGAPKIIVSLMAKDIASVKSEALAYREADFDILEWRVDHYADLSNVESVMAAAKILRETMPEKPLLFTFRSAKEGGEQAISTEAYIALNRAAIDSGLVDMIDLELFTGDDQVKETVAYAHAHDVKVVMSNHDFHKTPEAEEIIARARKMQSFDADIPKIALMPQSTSDVLTLLAATLEMQEQYADRPIITMSMAKTGVISRLAGEVFGSAATFGAVKKASAPGQISVNDLRTVLTILHQA
For the protein B1, the “fold change of barcode share” value was 0.398 ± 0.12 under setting [1] and below 0.00529 under setting [2].

B2: aroD L45W (protein)
chain: B1 chain with L45W, A158L
Consider B2, for which the “fold change of barcode share” value is 0.275 ± 0.12 under setting [1] and 0.00531 ± 0.0044 under setting [2].

B3: aroD L45A (protein)
chain: B1 chain with L45A, A158L
In the case of B3, the “fold change of barcode share” value is, setting by setting: under setting [1], 0.326 ± 0.064; under setting [2], 0.00465 ± 0.0006.

B4: aroD F79W (protein)
chain: B1 chain with F79W, A158L
For the protein B4, the “fold change of barcode share” value was found to be 0.598 ± 0.086 under setting [1] and 0.0693 ± 0.083 under setting [2].

B5: aroD F79A (protein)
chain: B1 chain with F79A, A158L
For the protein B5, the “fold change of barcode share” value reads like this: under setting [1], 0.41 ± 0.042; under setting [2], below 0.0123.

B6: aroD L158W (protein)
chain: B1 chain with A158W
Take B6: the “fold change of barcode share” value is 0.347 ± 0.0067 under setting [1] and below 0.008 under setting [2].

B7: aroD F79Q (protein)
chain: B1 chain with F79Q, A158L
Consider B7, for which the “fold change of barcode share” value runs as follows: under setting [1], 0.396 ± 0.038; under setting [2], below 0.00975.

B8: lpxD M255P (protein)
chain: MPSIRLADLAQQLDAELHGDGDIVITGVASMQSAQTGHITFMVNPKYREHLGLCQASAVVMTQDDLPFAKSAALVVKNPYLTYARMAQILDTTPQPAQNIAPSAVIDATAKLGNNVSIGANAVIESGVELGDNVIIGAGCFVGKNSKIGAGSRLWANVTIYHEIQIGQNCLIQSGTVVGADGFGYANDRGNWVKIPQIGRVIIGDRVEIGACTTIDRGALDDTIIGNGVIIDNQCQIAHNVVIGDNTAVAGGVIPAGSLKIGRYCMIGGASVINGHMEICDKVTVTGMGMVMRPITEPGVYSSGIPLQPNKVWRKTAALVMNIDDMSKRLKSLERKVNQQD
As to B8, the “fold change of barcode share” value is, setting by setting: under setting [1], 0.106 ± 0.066; under setting [2], below 0.02.

B9: lpxD V178A (protein)
chain: B8 chain with V178A, P255M
For B9, the “fold change of barcode share” value under setting [1] was found to be 0.183 ± 0.056 and the “fold change of barcode share” value under setting [2] is below 0.0195.

B10: lpxD V59A (protein)
chain: B8 chain with V59A, P255M
Consider B10, for which the “fold change of barcode share” value by setting is: under setting [1], 0.316 ± 0.12; under setting [2], 0.00563 ± 0.0037.

B11: lpxD V123Q (protein)
chain: B8 chain with V123Q, P255M
Take B11: the “fold change of barcode share” value turned out to be 0.267 ± 0.14 under setting [1] and 0.11 ± 0.15 under setting [2].

B12: lpxD V123W (protein)
chain: B8 chain with V123W, P255M
Consider B12, for which the “fold change of barcode share” value came out at 0.341 ± 0.039 under setting [1] and 0.00516 ± 0.0019 under setting [2].

B13: lpxD V123D (protein)
chain: B8 chain with V123D, P255M
In the case of B13, the “fold change of barcode share” value runs as follows: under setting [1], 0.393 ± 0.059; under setting [2], 0.00415 ± 0.0025.

B14: lpxD V59Q (protein)
chain: B8 chain with V59Q, P255M
For the protein B14, the “fold change of barcode share” value under setting [1] was 0.364 ± 0.2.

B15: lpxD V123A (protein)
chain: B8 chain with V123A, P255M
Turning to B15, the “fold change of barcode share” value reads like this: under setting [1], 0.368 ± 0.15; under setting [2], 0.17 ± 0.24.
